The antibiotic and cytotoxicity screens of Wong et al. (2023)
Some of the results follow.

tested on: S. aureus RN4220; assay: growth inhibition call (relative growth <= 0.2); details: 50 µM

Growth inhibition call, inactive:
C[C@H]1CN([C@@H](C)CO)C(=O)c2cc(NC(=O)Nc3cccc4ccccc34)ccc2O[C@@H]1CN(C)C(=O)Nc1cccc2ccccc12
C[C@H](CO)N1C[C@H](C)[C@@H](CN(C)C(=O)C2CCCCC2)OCCCC[C@H](C)Oc2ccc(NS(=O)(=O)c3ccccc3)cc2C1=O
Cc1ccc(/C=c2\sc3ncnn3c2=O)o1
CNC(=O)C[C@@H]1CC[C@@H]2[C@H](COC[C@H](O)CN2C(=O)c2ccccn2)O1
O=C(CCCl)NCc1ccccc1
C[C@@H]1CN([C@H](C)CO)C(=O)c2c(c3ccccc3n2C)-c2ccccc2CO[C@H]1CN(C)Cc1ccc(Oc2ccccc2)cc1
CCOC(=O)OC(C)OC1=C(C(=O)Nc2ccccn2)N(C)S(=O)(=O)c2ccccc21 (stereo unspecified)
Cc1noc(C)c1S(=O)(=O)Nc1ccc2c(c1)C(=O)N([C@@H](C)CO)C[C@H](C)[C@@H](CN(C)S(=O)(=O)c1cn(C)cn1)OCCCC[C@H](C)O2
C[C@@H]1CN([C@@H](C)CO)C(=O)c2cc(NC(=O)NC3CCCCC3)ccc2O[C@@H](C)CCCCO[C@@H]1CN(C)C(=O)Nc1ccc2c(c1)OCO2
O=C(Nc1ccc2c(c1)[C@H]1C[C@H](CC(=O)N3CCc4ccccc4C3)O[C@@H](CO)[C@H]1O2)C1CCOCC1
COC(=O)/C=C1\N[C@H]2CCCC[C@@H]2NC1=O
C[C@@H]1CN([C@H](C)CO)C(=O)c2cc(NS(=O)(=O)c3ccc(Cl)cc3)ccc2O[C@@H](C)CCCCO[C@@H]1CN(C)C(=O)NC1CCCCC1
C[C@H]1CN([C@@H](C)CO)C(=O)c2cc(NC(=O)Cn3cnnn3)ccc2O[C@H]1CN(C)Cc1ccc(-c2ccccc2)cc1
C[C@@H]1CN([C@@H](C)CO)C(=O)c2cccc(NS(=O)(=O)c3ccccc3)c2O[C@@H]1CN(C)S(C)(=O)=O
Cc1cccc(-c2nc3ccccc3n2CCC(C)C)c1
COCCNC(=O)C[C@H]1CC[C@H](NS(=O)(=O)c2ccc(C)cc2)[C@H](CO)O1
Cc1nn(C)c(Cl)c1S(=O)(=O)NC(=O)[C@@]1(C)CCN1C(=O)c1ccccc1CCc1ccccc1
Cc1noc(C)c1S(=O)(=O)Nc1cccc2c1O[C@H](CN(C)S(=O)(=O)c1cn(C)cn1)[C@H](C)CN([C@@H](C)CO)C2=O
C[C@@H]1CN([C@H](C)CO)C(=O)CCCn2cc(nn2)CO[C@@H]1CN(C)S(=O)(=O)c1ccccc1C#N
O=C(NCCCN1CCOCC1)[C@@H]1[C@@H](CO)[C@@H]2Cn3c(ccc(C4=CCCCC4)c3=O)[C@H]1N2
COC(=O)CCCCCCC(=O)NN
C[C@H]1CN([C@@H](C)CO)C(=O)c2cccc(NC(=O)c3ccc(-c4nccs4)cc3)c2O[C@H]1CN(C)CC1CCCCC1
CC1(C)C=C(C(=O)N2CCOCC2)C(C)(C)N1
C[C@@H]1CCCCO[C@H](CN(C)C(=O)Nc2ccc3c(c2)OCO3)[C@H](C)CN([C@H](C)CO)C(=O)c2cc(NC(=O)NC3CCCCC3)ccc2O1
COc1ccc2c3c(n(c2c1)C)[C@H](CO)N(C[C@]13CCN(CC1)C(=O)c1ccccc1)C(=O)Nc1ccccc1F
C[C@@H]1CN([C@H](C)CO)C(=O)c2c(c3ccccc3n2C)-c2ccccc2CO[C@H]1CN(C)C(=O)N[C@H](C)c1ccccc1
COc1ccc(S(=O)(=O)N(C)C[C@@H]2OCCCC[C@H](C)Oc3ccc(NS(C)(=O)=O)cc3C(=O)N([C@@H](C)CO)C[C@H]2C)cc1
CCC(=O)N(C)C[C@H]1Oc2ncc(C#C[C@@H](C)O)cc2C(=O)N([C@H](C)CO)C[C@@H]1C
C=CCNC(=O)[C@@H]1[C@H]2C(=O)O[C@H](c3ccccc3)[C@H](c3ccccc3)N2[C@H](c2ccccc2OCCO)[C@@]12C(=O)Nc1ccc(C#CC3=CCCCC3)cc12
CCCCCN1CC=C[C@@]23O[C@@H]4C=CCOC(=O)[C@@H]4[C@H]2C(=O)N(CCCO)[C@@H]3C1=O
C=CCNC1=C2C[C@H](C)C[C@H](OC)[C@@H](O)[C@H](C)/C=C(\C)[C@H](OC(N)=O)[C@H](OC)/C=C/C=C(\C)C(=O)NC(=CC1=O)C2=O
